In the RNAGym collection of RNA variant scans (doi:10.7554/elife.90254):
The source gives no read counts; variants with many changes may rest on few reads.

B1: LINE1-mini (parent)
chain: GGCAGAGCUCAACACAGCGUGGCAAAGUGGCUGUGGCUAGACUGCC

Variants of: B1
Assay: self-cleavage, relative activity (ratio to wild type); higher = more cleavage; in vitro, sequencing; the parent is a self-cleaving ribozyme
Variant GGCAGGGUUCAACACAGCGUGGCAAAGUGGCAGUGGCUAGGCUGCC [A6G C8U U32A A41G] has a self-cleavage of 0.15.
For GGCAGGGCUAAACACAUCGUGGCAAAGUUGCUGUGGGUCUCCCGCC [A6G C10A G17U G29U C37G A39C G40U A41C U43C], the self-cleavage was 0.
Work on GGCAGGGCUCAAUACAGCGUGGCAAAGUGGCUGUGGAUAGACUGCC [A6G C13U C37A] yielded a self-cleavage of 0.03.
GGCAGGGGGCAACACAGCGUGGCAAAGUGCCUGUGGCUAGACUGCC [A6G C8G U9G G30C] gave a self-cleavage of 0.02.
For GGCAGGGCUCAAUACAGCGUGGCAAAGUGGCUGUGGCUAGACUGCA [A6G C13U C46A], the self-cleavage was 0.08.
In the case of GGCAGGGCUUUACACAGCGUGGCAAAGUGGCGGUGGCUAGACUGCC [A6G C10U A11U U32G], the self-cleavage is reported as 0.03.
GGCAGGGCUGAGCACAGCGUGGCUAAGUGGCCGCGGCUAGACUGCC [A6G C10G A12G A24U U32C U34C] showed a self-cleavage of 0.06.
In the case of GGCAGGGCUAAACACAGCGUGACAAAGUGGCUGUGGCUAGACUGCC [A6G C10A G22A], the self-cleavage is reported as 0.01.
Work on GGCAGGGCUCAAAACAGCCUGGCAAAGGGGCUGUUGCUAGACUGCC [A6G C13A G19C U28G G35U] yielded a self-cleavage of 0.07.
GGCAGGGCUCAAAACAGCGUGGCAAAGUGGGUGUGGCUAGACUGCC [A6G C13A C31G] showed a self-cleavage of 0.03.
Work on GGCAGGGCUUAACAAAGCGUGGCAAAGUGGCUGUGGCUAGUCUACC [A6G C10U C15A A41U G44A] yielded a self-cleavage of 0.04.
In the case of GGCAGGGCUGAACACAACGUGGCAAAGUGGCUGUGGCUAAACUGCC [A6G C10G G17A G40A], the self-cleavage is reported as 0.04.
Variant GGCAGGGCUAAUCACAGCGUGGCAAAAUGGCUGUGGCUAGACUGCC [A6G C10A A12U G27A] has a self-cleavage of 0.01.
Work on GGCAGGGCUAAGCACAGCGUGGCAAAGUGGCUGUGGCGAGACUGCC [A6G C10A A12G U38G] yielded a self-cleavage of 0.
In the case of GGCAGGGUCCGACACAGCGUGGCAAAGUGGCUGUGGCUAGACUGCU [A6G C8U U9C A11G C46U], the self-cleavage is reported as 0.04.
In the case of GGCAGGGCUCAAGACAGCGUGGCAAAGUCGCUGUGGCUAGACUGCC [A6G C13G G29C], the self-cleavage is reported as 0.04.
For GGCAGGGUUCAGCACAGCGUGGCAAAGUGGCUGUGGCUAAACUGCC [A6G C8U A12G G40A], the self-cleavage was 0.19.
With GGCAGGGCUCAAAACAGCGUGGCGAAGUGGCUGUGGCUAGACUGAC [A6G C13A A24G C45A] the self-cleavage was 0.04.
For GGCAGGGCUCAAUACAGCGUGGCCAAGUGGCUGUGGCUAGACUGCA [A6G C13U A24C C46A], the self-cleavage was 0.04.
With GGCAGGGCUUAACACAGCGUGGCAAAGUGGCUGUGGCUAGCCUGCC [A6G C10U A41C] the self-cleavage was 0.02.
GGCAGGGUUCAAGACAGCGUGGCAAAGUGGCUGCGGGUAGACUGCC [A6G C8U C13G U34C C37G] gave a self-cleavage of 0.09.
For GGCAGGGCUUAAGACAGCGUGGCAAAGUGGCUGUGGCUAGACUGCC [A6G C10U C13G], the self-cleavage was 0.
Work on GGCAGGGCUCAAAACAGCGUGGCAAAGUGGCUGUGGCUAGACUCCC [A6G C13A G44C] yielded a self-cleavage of 0.09.
GGCAGGGCUUAACACAGGGUCGCAAGGUGGCUGUCGCUAGACUGCC [A6G C10U C18G G21C A26G G35C] showed a self-cleavage of 0.02.
In the case of GGCAGGGUUCAACACAGCGUGGCAAAGUGGCUGUAGCUAGACUGCC [A6G C8U G35A], the self-cleavage is reported as 0.05.
In the case of GGCAGGGCUCAAAGCAGAGAGGCAAAGUGGCUGAGGCUAGACUUCC [A6G C13A A14G C18A U20A U34A G44U], the self-cleavage is reported as 0.01.
In the case of GGCAGGGCUAAACACAGCGUGGAACAGUGGCUGUGGCUAGACUGCC [A6G C10A C23A A25C], the self-cleavage is reported as 0.01.
Variant GGCAGGGCUAAACCCAGCGUGGCAAAGUAGCUGUGGCUAGACUGCC [A6G C10A A14C G29A] has a self-cleavage of 0.
Work on GGCAGGGUGCAACACAGCGUGGCAAAGUGGCUGAGGCUAGACUGCC [A6G C8U U9G U34A] yielded a self-cleavage of 0.07.
GGCAGGGGUCAACACAGCGUGGCAAAGUGGCUGUGGCUAGACUUCC [A6G C8G G44U] showed a self-cleavage of 0.02.
GGCAGGGCUAAACACAGCGUGGCAAAGUUGCUGUGGCUAGACUGCC [A6G C10A G29U] showed a self-cleavage of 0.07.
GGCAGGGCUAAGCCCAGCGUGGCAAAGUUGCUGUGGCUAGACUGCC [A6G C10A A12G A14C G29U] showed a self-cleavage of 0.01.
Variant GGCAGGGUUCGACACAGCGUGGCACAGUGGCUGUGGCUAGACUGCC [A6G C8U A11G A25C] has a self-cleavage of 0.02.
GGCAGGGCUAAACACAGCGUGGCAAAGUGGCUGUUGCUAGGCUGCC [A6G C10A G35U A41G] showed a self-cleavage of 0.01.
GGCAGGGUUCAACAUAGCAUGGCCAAGUGGCUGUGGCUUGACUGCC [A6G C8U C15U G19A A24C A39U] gave a self-cleavage of 0.24.
In the case of GGCAGGGCUUAACACAGCGUGGCAAAGUGGCUGCGGCUAGACUGCC [A6G C10U U34C], the self-cleavage is reported as 0.02.
In the case of GGCAGGGCUCAAUACAGCGUGGCGAAGUGGCUGUGGCUUGACUGAC [A6G C13U A24G A39U C45A], the self-cleavage is reported as 0.03.
With GGCAGGGCUAAACACUGCGUGGCAAAGUGGCUGUGGCUACACUGCC [A6G C10A A16U G40C] the self-cleavage was 0.
GGCAGGGUUCAACAUAGCUUGGCAAAGUGGCUGUGGCUAGACUGCC [A6G C8U C15U G19U] gave a self-cleavage of 0.22.
For GGCAGGGCUUAACACAGCGGGGCAAAGUGGCUGUGGCUAGACUGCC [A6G C10U U20G], the self-cleavage was 0.02.
Work on GGCAGGGCUAAACACAGCGUGGCAAAGUGGCUGUGGCUAGACUGCA [A6G C10A C46A] yielded a self-cleavage of 0.
GGCAGGGCUCAAAACAGCGUUGUAAAGUGGCUGUGGCUAGACUGGC [A6G C13A G21U C23U C45G] showed a self-cleavage of 0.25.
GGCAGGGUUCAACACAGCGUGGCAUAGUGGGUGCGGCUAGACUGCC [A6G C8U A25U C31G U34C] gave a self-cleavage of 0.24.
Variant GGCAGGGCUCAAAACAGCGUGGAAAAGUGGCUGUGGCUAGACUGCC [A6G C13A C23A] has a self-cleavage of 0.1.
With GGCAGGGGUCAACACAGCGUGGCAAAGUUGCUGUGGCUAGACUGCC [A6G C8G G29U] the self-cleavage was 1.16.
Work on GGCAGGGUUCAACAGAGCGUGGCAAUGUGGCUGUGGCUAGACUGCC [A6G C8U C15G A26U] yielded a self-cleavage of 0.2.
In the case of GGCAGGGCUAAACAUAGCGUGGCAAAGUGGCUUUGGCUAGACUGCC [A6G C10A C15U G33U], the self-cleavage is reported as 0.01.
For GGCAGGGCUGAACACAGCGUGGCAAAGUAGCUGUGGCUAGGCUGCC [A6G C10G G29A A41G], the self-cleavage was 0.01.
For GGCAGGGCUGAACACAGCGUGACAAAGUGGCUGUGGCUAGACUGCC [A6G C10G G22A], the self-cleavage was 0.05.
Variant GGCAGGGCUAAACACAGCGUGGCAAAGUGGCUGAGGCUAGAAUGCC [A6G C10A U34A C42A] has a self-cleavage of 0.01.
Variant GGCAGGGCUCAAGACAGCGUGGCAAAAUGGAUGUGGGUAGACUCCC [A6G C13G G27A C31A C37G G44C] has a self-cleavage of 0.04.
GGCAGGGCUCAAGAAAGCGUGGCAAAGUGGCUGUGGCUAGGCUGCC [A6G C13G C15A A41G] showed a self-cleavage of 0.14.
Variant GGCAGGGCUCAAGACAGCGUGGCACAGUGGCAGUGGCUAGACUGCC [A6G C13G A25C U32A] has a self-cleavage of 0.01.
GGCAGGGUUCAACAGAGCUUGGCCGAGUGGCUGUGGCUAGACUGCC [A6G C8U C15G G19U A24C A25G] gave a self-cleavage of 0.04.
For GGCAGGGCUCAAAACAGCGUCACAAAGUGGCUGUGGCUAGACUGCC [A6G C13A G21C G22A], the self-cleavage was 0.05.
Variant GGCAGGGUUCAACUCAGAGUGGCAAAGUCGCUCUGGCACGACUGCC [A6G C8U A14U C18A G29C G33C U38A A39C] has a self-cleavage of 0.02.
